# Measured values as given in the supplement of paper PMC8728848.
# Some of the results follow.
# B1: Gal 3C (Homo sapiens), P17931 (protein)
# chain: YGAPAGPLIVPYNLPLPGGVVPRMLITILGTVKPNANRIALDFQRGNDVAFHFNPRFNENNRRVIVCNTKLDNNWGREERQSVFPFESGKPFKIQVLVEPDHFKVAVNDAHLLQYNHRVKKLNEISKLGISGDIDLTSASYTMI
# How the values were obtained:
# Test in all cases: glycan array binding signal (z-score within array); higher = stronger binding
# Conditions in all cases: glycan notation: IUPAC condensed, linker removed
# [1] = molecular target: Gal3S(b1-3)[Fuc(a1-4)]GlcNAc
# Summary of the method: (§1)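 The binding signal is a Z-score computed within each array. Data were drawn from 3228 arrays in the Consortium for Functional Glycomics database, restricted to those with a known protein sequence. Scores were averaged over arrays of the same protein sequence at different concentrations or buffers, and over linkers, and negative values can be taken as non-binding.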
# Gal3S(b1-4)Glc = molecular target: Gal3S(b1-4)Glc
# Summary of the method: as §1
# Gal3S(b1-4)Glc6S = molecular target: Gal3S(b1-4)Glc6S
# Summary of the method: as §1
# Gal3S(b1-4)GlcNAc = molecular target: Gal3S(b1-4)GlcNAc
# Summary of the method: as §1
# [2] = molecular target: Gal3S(b1-4)[Fuc(a1-3)]Glc6S
# Summary of the method: as §1
# [3] = molecular target: Gal3S(b1-4)[Fuc(a1-3)]GlcNAc
# Summary of the method: as §1
# [4] = molecular target: Gal3S(b1-4)[Fuc(a1-3)]GlcNAc6S
# Summary of the method: as §1
# Gal3S4S(b1-4)GlcNAc = molecular target: Gal3S4S(b1-4)GlcNAc
# Summary of the method: as §1
# Gal3S6S(b1-4)GlcNAc = molecular target: Gal3S6S(b1-4)GlcNAc
# Summary of the method: as §1
# Gal3S6S(b1-4)GlcNAc6S = molecular target: Gal3S6S(b1-4)GlcNAc6S
# Summary of the method: as §1
# Gal4S(b1-4)GlcNAc = molecular target: Gal4S(b1-4)GlcNAc
# Summary of the method: as §1
# Gal4S6S(b1-4)GlcNAc = molecular target: Gal4S6S(b1-4)GlcNAc
# Summary of the method: as §1
# Gal6P(b1-4)GlcNAc = molecular target: Gal6P(b1-4)GlcNAc
# Summary of the method: as §1
# Gal6S(b1-3)GlcNAc = molecular target: Gal6S(b1-3)GlcNAc
# Summary of the method: as §1
# Gal6S(b1-3)GlcNAc6S = molecular target: Gal6S(b1-3)GlcNAc6S
# Summary of the method: as §1
# Gal6S(b1-4)Glc = molecular target: Gal6S(b1-4)Glc
# Summary of the method: as §1
# Gal6S(b1-4)Glc6S = molecular target: Gal6S(b1-4)Glc6S
# Summary of the method: as §1
# Gal6S(b1-4)GlcNAc = molecular target: Gal6S(b1-4)GlcNAc
# Summary of the method: as §1
# Gal6S(b1-4)GlcNAc6S = molecular target: Gal6S(b1-4)GlcNAc6S
# Summary of the method: as §1
# GalNAc(a1-3)Gal = molecular target: GalNAc(a1-3)Gal
# Summary of the method: as §1
# GalNAc(a1-3)GalNAc = molecular target: GalNAc(a1-3)GalNAc
# Summary of the method: as §1
# [5] = molecular target: GalNAc(a1-3)GalNAc(b1-3)Gal(a1-4)Gal(b1-4)Glc
# Summary of the method: as §1
# [6] = molecular target: GalNAc(a1-3)GalNAc(b1-3)Gal(a1-4)Gal(b1-4)GlcNAc
# Summary of the method: as §1
# GalNAc(b1-3)Gal = molecular target: GalNAc(b1-3)Gal
# Summary of the method: as §1
# [7] = molecular target: GalNAc(b1-3)Gal(a1-4)Gal(b1-4)GlcNAc
# Summary of the method: as §1
# [8] = molecular target: GalNAc(b1-3)Gal(a1-4)Gal(b1-4)GlcNAc(b1-3)Gal(b1-4)Glc
# Summary of the method: as §1
# [9] = molecular target: GalNAc(b1-3)Gal(a1-6)Gal(b1-4)Glc
# Summary of the method: as §1
# GalNAc(b1-3)GalNAc = molecular target: GalNAc(b1-3)GalNAc
# Summary of the method: as §1
# GalNAc(b1-3)GlcNAc = molecular target: GalNAc(b1-3)GlcNAc
# Summary of the method: as §1
# GalNAc(b1-4)Gal(b1-4)Glc = molecular target: GalNAc(b1-4)Gal(b1-4)Glc
# Summary of the method: as §1
# GalNAc(b1-4)GlcNAc = molecular target: GalNAc(b1-4)GlcNAc
# Summary of the method: as §1
# [10] = molecular target: GalNAc(b1-4)GlcNAc(b1-2)Man
# Summary of the method: as §1
# [11] = molecular target: GalNAc(b1-4)GlcNAc(b1-2)Man(a1-3)[GalNAc(b1-4)GlcNAc(b1-2)Man(a1-6)]Man(b1-4)GlcNAc(b1-4)GlcNAc
# Summary of the method: as §1
# [12] = molecular target: GalNAc(b1-4)GlcNAc(b1-3)GalNAc(b1-4)GlcNAc
# Summary of the method: as §1
# GalNAc(b1-4)GlcNAc6S = molecular target: GalNAc(b1-4)GlcNAc6S
# Summary of the method: as §1
# GalNAc(b1-6)GalNAc = molecular target: GalNAc(b1-6)GalNAc
# Summary of the method: as §1
# GalNAc3S(b1-4)GlcNAc = molecular target: GalNAc3S(b1-4)GlcNAc
# Summary of the method: as §1
# GalNAc3S(b1-4)GlcNAc3S = molecular target: GalNAc3S(b1-4)GlcNAc3S
# Summary of the method: as §1
# [13] = molecular target: GalNAc3S(b1-4)[Fuc(a1-3)]GlcNAc
# Summary of the method: as §1
# GalNAc4S6S(b1-4)GlcNAc = molecular target: GalNAc4S6S(b1-4)GlcNAc
# Summary of the method: as §1
# GalNAc6S(b1-4)GlcNAc = molecular target: GalNAc6S(b1-4)GlcNAc
# Summary of the method: as §1
# Glc(a1-4)Glc = molecular target: Glc(a1-4)Glc
# Summary of the method: as §1
# [14] = molecular target: Glc(a1-4)Glc(a1-4)Glc(a1-4)Glc
# Summary of the method: as §1
# Glc(a1-6)Glc(a1-6)Glc = molecular target: Glc(a1-6)Glc(a1-6)Glc
# Summary of the method: as §1
# [15] = molecular target: Glc(a1-6)Glc(a1-6)Glc(a1-6)Glc
# Summary of the method: as §1
binder,measurement,setting,value
B1,glycan array binding signal (z-score),[1],-0.223
same,glycan array binding signal (z-score),Gal3S(b1-4)Glc,-0.211
same,glycan array binding signal (z-score),Gal3S(b1-4)Glc6S,-0.261
same,glycan array binding signal (z-score),Gal3S(b1-4)GlcNAc,-0.224
same,glycan array binding signal (z-score),[2],-0.203
same,glycan array binding signal (z-score),[3],-0.344
same,glycan array binding signal (z-score),[4],-0.15
same,glycan array binding signal (z-score),Gal3S4S(b1-4)GlcNAc,-0.291
same,glycan array binding signal (z-score),Gal3S6S(b1-4)GlcNAc,-0.289
same,glycan array binding signal (z-score),Gal3S6S(b1-4)GlcNAc6S,-0.276
same,glycan array binding signal (z-score),Gal4S(b1-4)GlcNAc,-0.329
same,glycan array binding signal (z-score),Gal4S6S(b1-4)GlcNAc,-0.28
same,glycan array binding signal (z-score),Gal6P(b1-4)GlcNAc,-0.299
same,glycan array binding signal (z-score),Gal6S(b1-3)GlcNAc,-0.225
same,glycan array binding signal (z-score),Gal6S(b1-3)GlcNAc6S,-0.274
same,glycan array binding signal (z-score),Gal6S(b1-4)Glc,-0.279
same,glycan array binding signal (z-score),Gal6S(b1-4)Glc6S,-0.271
same,glycan array binding signal (z-score),Gal6S(b1-4)GlcNAc,-0.339
same,glycan array binding signal (z-score),Gal6S(b1-4)GlcNAc6S,-0.32
same,glycan array binding signal (z-score),GalNAc(a1-3)Gal,-0.331
same,glycan array binding signal (z-score),GalNAc(a1-3)GalNAc,-0.235
same,glycan array binding signal (z-score),[5],-0.269
same,glycan array binding signal (z-score),[6],-0.239
same,glycan array binding signal (z-score),GalNAc(b1-3)Gal,-0.311
same,glycan array binding signal (z-score),[7],-0.184
same,glycan array binding signal (z-score),[8],-0.275
same,glycan array binding signal (z-score),[9],-0.332
same,glycan array binding signal (z-score),GalNAc(b1-3)GalNAc,-0.191
same,glycan array binding signal (z-score),GalNAc(b1-3)GlcNAc,-0.319
same,glycan array binding signal (z-score),GalNAc(b1-4)Gal(b1-4)Glc,-0.257
same,glycan array binding signal (z-score),GalNAc(b1-4)GlcNAc,-0.217
same,glycan array binding signal (z-score),[10],-0.274
same,glycan array binding signal (z-score),[11],-0.103
same,glycan array binding signal (z-score),[12],1.03
same,glycan array binding signal (z-score),GalNAc(b1-4)GlcNAc6S,-0.197
same,glycan array binding signal (z-score),GalNAc(b1-6)GalNAc,-0.248
same,glycan array binding signal (z-score),GalNAc3S(b1-4)GlcNAc,-0.294
same,glycan array binding signal (z-score),GalNAc3S(b1-4)GlcNAc3S,-0.315
same,glycan array binding signal (z-score),[13],-0.329
same,glycan array binding signal (z-score),GalNAc4S6S(b1-4)GlcNAc,-0.337
same,glycan array binding signal (z-score),GalNAc6S(b1-4)GlcNAc,-0.364
same,glycan array binding signal (z-score),Glc(a1-4)Glc,-0.324
same,glycan array binding signal (z-score),[14],-0.255
same,glycan array binding signal (z-score),Glc(a1-6)Glc(a1-6)Glc,-0.328
same,glycan array binding signal (z-score),[15],-0.248
